# Measurements as given in PubChem BioAssay AID445 (National Center for Advancing Translational Sciences (NCATS), 2006).
# The campaign covered roughly 110,000 compounds. About 40 (0.04%) were called active. The shares of active, inactive and inconclusive entries below differ from those in the screen. Calls come from the whole dose curve; as a rule, active = well fitted curve in the direction sought with a large enough effect in the signal ratio (not every such curve was filed as active); inconclusive = small, poorly fitted or top-dose-only effect, or a change in a side signal; inactive = flat fitted curve, though single readings scatter; the % refers to the signal ratio. Potencies of inconclusive entries are doubtful fits and often do not repeat.
# Experiment: IkB Signaling;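 for IkBa stabilization activation: 0% = basal untreated cells and 100% = reference inhibitor full response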
# Details: ABC-DLBCL IkBa-CBG/CBR dual luciferase ratio (green luciferase fused to IkBa over red control in OCI-Ly3 lymphoma cells), 4 h; IkBa stabilization activation: at 57.1 µM (top of the series), scaled: untreated 0%, proteasome inhibitor 100% unless noted
# How it was run: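 Curves were fitted separately to fusion (green), unfused (red) and ratio luminescence, then classed by r2, magnitude and activity. Cells: OCI-Ly3, 4 h compound plus doxycycline at 37C; 10 uM MG-132 defined full response.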
# Potency is the fitted concentration of half-maximal effect.
SMILES,IkBa stabilization activation,Potency
c1nnc(NC2=NCCCCC2)s1,inactive: 0.52%,–
O=C(CN1CCN(CC(=O)c2ccc(F)cc2)CC1)Nc1ccccc1Cl,inconclusive: 7.37% [signal inhibitor],–
COc1ccc(CCNC(=O)c2ccc(Cn3c(=O)[nH]c4cc(OC)c(OC)cc4c3=O)cc2)cc1OC,inconclusive: 0.104% [signal inhibitor],–
COc1ccc(-c2nc3cnc(N4CCOCC4)nc3n(-c3ccc(OC)cc3)c2=O)cc1,"inactive: -2.59% [at 11.4 µM, scaled: untreated 0%, proteasome inhibitor 100%]",–
CCCCNC(=O)CN1CCN(c2ncc(NC(=O)c3ccc(Cl)cc3)cc2C(=O)O)CC1,inactive: -1.02%,–
NC(=O)c1ccc(-n2nnnc2SCc2ccc(F)cc2)cc1,inconclusive: 13.7% [signal inhibitor],–
O=S(=O)(c1ccc2c(c1)nc(COc1ccc(Cl)cc1)n2CC1CCCO1)N1CCOCC1 (configuration not stated),inconclusive: 2.47% [signal inhibitor],–
Cc1cc2n(n1)CCC(=O)N2Cc1ccc(C(=O)Nc2cccc(C(F)(F)F)c2)cc1,inconclusive: 2.19% [signal inhibitor],–
CCOc1ccccc1-n1nnnc1SCC(=O)NC(=O)NCc1ccco1,inconclusive: 1.89% [signal inhibitor],–
CCOC(=O)c1ccc2nc(NC(=O)c3cccs3)sc2c1,–,"inconclusive: 25.1 µM [signal inhibitor, partial curve]"
O=c1oc2cc(N=Cc3ccc4c(c3)OCO4)ccc2c2ccccc12,"inactive: -1.42% [at 11.4 µM, scaled: untreated 0%, proteasome inhibitor 100%]",–
Cc1ccc(Nc2c(-c3ccc(C)cc3)nc3c(C)cccn23)cc1,inconclusive: -2.35% [signal inhibitor],–
O=C(NCCc1ccc(Cl)cc1)C(=O)NCC(c1cccs1)S(=O)(=O)c1ccccc1 (configuration not stated),inconclusive: 12.9% [signal inhibitor],–
N#Cc1cccc(NC(=O)COc2ccc(-n3ccnc3)cc2)c1,inconclusive: 2.54% [signal inhibitor],–
O=S(=O)(c1ccccc1)N1CCN(CC(O)COc2ccc3c(c2)CCC3)CC1 (configuration not stated),inconclusive: 3.44% [signal inhibitor],–
COc1cccc(-c2ccc3ncnc(N(C)C)c3c2)c1,"inactive: -2.89% [at 11.4 µM, scaled: untreated 0%, proteasome inhibitor 100%]",–
CC(C)OC(=O)c1c(NC(=O)c2cccs2)sc2c1CCCC2,inactive: 4.35%,–
O=C(Cc1ccc(Cl)cc1)Nc1ccc2oc(-c3ccccc3F)nc2c1,inactive: 0.341%,–
CNC(=O)c1c(NC(=O)Cc2coc3ccc(OC)cc23)sc2c1CCCC2,inconclusive: 3.16% [signal inhibitor],–
CC(C)Cc1cc(C(=O)Nc2ccc(F)cc2F)no1,–,"inconclusive: 15.8 µM [signal inhibitor, partial curve]"
COc1ccccc1NC(=O)c1sc2nc(C)c(C(=O)Nc3ccc(C)cc3C)c(-c3ccccc3Cl)c2c1N,inactive: 0.931%,–
Cc1ccc(NC(=O)CCN2C(=O)c3ccccc3Sc3ncccc32)c(Cl)c1,inactive: 2.32%,–
CCS(=O)(=O)N1CCc2cc(C(=O)NCc3ccccc3Cl)ccc21,–,inconclusive: 3.98 µM [signal inhibitor]

SMILES,IkBa stabilization activation,Potency
CCCCc1nn2c(=O)cc(COC(=O)c3ccccc3C)nc2s1,inconclusive: 5.44% [signal inhibitor],–
COc1ccc(NC(=O)C(C(C)C)N2Cc3ccccc3C2=O)cc1 (configuration not stated),inconclusive: 0.912% [signal inhibitor],–
Cc1ccc(-n2nc3c(=O)n(C(C)C(=O)NCc4ccccc4C)nc(C)c3c2C)cc1 (configuration not stated),inconclusive: 2.29% [signal inhibitor],–
O=C(c1cc2ccc3cccnc3c2[nH]1)N1CCN(c2cccc(Cl)c2)CC1,inactive: 9.72%,–
COc1ccccc1NC(=O)c1sc2nc3n(c(=O)c2c1C)N=C(c1cccc(Br)c1)CS3,inconclusive: 1.26% [signal inhibitor],–
O=C(O)c1cn[nH]c1-n1cnnn1,inactive: 0.28%,–
CN(C)c1ccc(-c2nn3c(-c4ccccc4Cl)nnc3s2)cc1,inactive: -0.666%,–
COc1ccc(OC)c(/C=C(\C#N)c2nc(-c3ccc(F)cc3)cs2)c1,inconclusive: 0.38% [signal inhibitor],–
Cn1c(C(=O)OCC(=O)NCc2cccs2)cc2sccc21,inactive: 0.481%,–
COc1cccc(C2C=C(c3ccc(Br)s3)Nc3ncnn32)c1OC (configuration not stated),inactive: 1.06%,–
Nc1c(-c2nc(-c3ccc4c(c3)OCO4)cs2)c2ccccn2c1C(=O)c1ccc(Cl)cc1,inconclusive: 2.7% [signal inhibitor],–
CCOc1ccc(NC(=O)Cc2c[nH]c3ccccc23)cc1,inconclusive: 1.7% [signal inhibitor],–
Cc1ccc(SCc2nc(-c3ccc(C(=O)NCC(C)c4ccccc4)cc3)oc2C)cc1 (configuration not stated),inconclusive: 0.918% [signal inhibitor],–
CCc1ccc(S(=O)(=O)c2nnn3c2nc(NCc2ccccc2)c2cc(Cl)ccc23)cc1,inconclusive: 1.44% [signal inhibitor],–
O=C(Nc1ccc(Cl)cc1)c1cc(S(=O)(=O)NC2CCCCCC2)ccc1F,inconclusive: -2% [signal inhibitor],–
CCCNC(=O)C(Cc1ccccc1)NS(=O)(=O)c1ccc2c(c1)c(=O)n(C)c(=O)n2C (configuration not stated),inconclusive: -1.31% [signal inhibitor],–
CCOc1ccc(C(=O)Nc2ccc3c(c2)OCCO3)cc1Br,–,"inconclusive: 31.6 µM [signal inhibitor, single point]"
O=C(CN1CCN(Cc2ccccc2Cl)C1=O)NCCc1ccc(Cl)cc1,inconclusive: -2.48% [signal inhibitor],–
CN(C)C(=O)c1ccc(-c2cc(-n3ccnc3)ncn2)cc1,"inactive: -2.31% [at 11.4 µM, scaled: untreated 0%, proteasome inhibitor 100%]",–
Cc1ccc(-c2csc3ncnc(Nc4ccc(C(=O)O)cc4)c23)cc1,inconclusive: 19% [signal inhibitor],–
COc1cc(NS(=O)(=O)c2ccc(-c3cc(C)no3)cc2)cc(OC)c1,inconclusive: 3.01% [signal inhibitor],–
COc1ccccc1-c1nc2cc(NC(=O)c3ccccc3Cl)ccc2o1,inconclusive: 5.78% [signal inhibitor],–
COc1cc(Br)cc(-c2nc3c(c(=O)[nH]c(=O)n3Cc3ccccc3)n2C)c1O,inconclusive: 2.56% [signal inhibitor],–

SMILES,IkBa stabilization activation,Potency
COc1ccc(CCNc2ncnc3onc(C)c23)c(OC)c1,inconclusive: 1.13% [signal inhibitor],–
O=C(CSc1nnc(-c2cccnc2)n1Cc1ccco1)N1c2ccccc2Sc2ccccc21,–,"inconclusive: 39.8 µM [rising, single point]"
O=C(O)CNC(=O)c1ccc(CO)o1,inactive: -0.0075%,–
CCSc1ccc2c(c1)N(CCCN1CCN(C)CC1)c1ccccc1S2,"inactive: 1.16% [at 25.6 µM, scaled: untreated 0%, proteasome inhibitor 100%]",–
Cc1cc(Cl)nc(NC(=O)CSc2ccc(Cl)cc2)n1,"inactive: 1.24% [at 11.4 µM, scaled: untreated 0%, proteasome inhibitor 100%]",–
CCc1ccccc1NC(=O)c1ccc(F)c(S(=O)(=O)N2CCN(c3cccc(Cl)c3)CC2)c1,inconclusive: 0.392% [signal inhibitor],–
CCOc1ccc(NC(=O)CSc2oc(-c3ccc(C)cc3)nc2S(=O)(=O)c2ccc(C)cc2)cc1,inactive: -0.989%,–
Cc1ccc(O)c(-c2n[nH]c3c2C(c2ccc(F)cc2)N(Cc2ccco2)C3=O)c1 (configuration not stated),inconclusive: -3.59% [signal inhibitor],–
Cc1c(O)cccc1C(=O)N[C@@H](CSc1ccccc1)[C@H](O)CN1C[C@H]2CCCC[C@H]2C[C@H]1C(=O)NC(C)(C)C,inconclusive: -3.99% [signal inhibitor],–
CCOC(=O)c1cnc2ccc(OCC)cc2c1Nc1ccc(OCc2ccccc2Cl)cc1,inconclusive: 8.13% [signal inhibitor],–
Cc1cccc(CNC(=O)CN2C(=O)CSc3c2c(C)nn3-c2ccccc2)c1,inconclusive: 0.8% [signal inhibitor],–
CC(C)(CO[C@H]1C[C@H]2CC[C@@]1(C)C2(C)C)[N+](=O)[O-],"inactive: 0.918% [at 11.4 µM, scaled: untreated 0%, proteasome inhibitor 100%]",–
CC(=O)c1cc(-c2ccc(F)cc2)n(CCC(=O)Nc2nc3ccc(C)cc3s2)c1C,inactive: 0.415%,–
COc1ccc(-c2nc3cc(NC(=O)c4ccc(C)cc4)ccc3o2)cc1Cl,inactive: 2.46%,–
Cc1cccc(-c2nc(CN3CCCC(C(=O)NC4CCCCC4)C3)c(C)o2)c1 (configuration not stated),inconclusive: 1.96% [signal inhibitor],–
Cc1ccc(C(=O)N2CCC(C)CC2)cc1NC(=O)c1nsc2ccccc12,inconclusive: 3.08% [signal inhibitor],–
CCOc1ccc(Br)cc1C1NC(=O)c2c(sc3c2CCN(C)C3)N1 (configuration not stated),inactive: 3.13%,–
COc1ccc(NC(=O)N(CCN2CCCC2)Cc2cc3cc(OC)c(OC)cc3[nH]c2=O)cc1,inconclusive: 0.627% [signal activator],–
CSc1nn(Cc2ccc(F)cc2)c(N)c1S(=O)(=O)c1ccc(Cl)cc1,inconclusive: 7.29% [signal inhibitor],–
COc1cccc(CSc2nc(-c3ccccc3OC)nc3c2Cc2c(CO)cnc(C)c2O3)c1,inconclusive: -1.07% [signal inhibitor],–
Cc1ccc(C(=O)CC2(O)C(=O)N(Cc3ccccc3)c3ccc(Br)cc32)cc1 (configuration not stated),inconclusive: 9.34% [signal inhibitor],–
